B1: mKO-FM14-N-p21 (other)
chain: MVSVIKPEMKMRYYMDGSVNGHEFTIEGEGTGRPYEGHQEMTLRVTMAEGGPMPFAFDLVSHVFCYGHRVFTKYPEEIPDYFKQAFPEGLSWERSLEFEDGGSASVSAHISLRGNTFYHKSKFTGVNFPADGPIMQNQSVDWEPSTEKITASDGVLKGDVTMYLKLEGGNSADGGGGSGGGGSGGGGSIHHTGGR[sequence of about 150 residues omitted]
notes: Fusion expressed inside HeLa cells from mKO-FM14-N-p21-pCDNA3. p21 was amplified from a HeLa cDNA library; also called p21 (WAF1); Sdi1
B2: mKG-N-p21 (other)
chain: MVSVIKPEMKMRYYMDGSVNGHEFTIEGEGTGRPYEGHQEMTLRVTMAEGGPMPFAFDLVSHVFAYGHRVFTKYPEEIPDYFKQAFPEGLSWERSLEFEDGGSASVSAHISLRGNTFYHKSKFTGVNFPADGPIMQNQSVDWEPSTEKITASDGVLKGDVTMYLKLEGGNSADGGGGSGGGGSGGGGSIHHTGGR[sequence of about 150 residues omitted]
notes: Green-only variant (C65A) of the N-terminal fragment fused with p21, expressed inside HeLa cells from mKG-N-p21-pCDNA3; also called mKO-FM14-N-p21 with the 65th cysteine substituted with alanine

What was measured:
mKO-FM14-C-PCNA [1] = target: T1, mKO-FM14-C-PCNA; assay: split fluorescent protein complementation in co-transfected HeLa cells, orange and green fluorescence images 8 hours after transfection
T1 construct: Fusion expressed inside HeLa cells from mKO-FM14-C-PCNA-pCDNA3; PCNA was amplified from a HeLa cDNA library; PCNA is said, as background, to form a homo-trimer; also called PCNA (proliferating cell nuclear antigen) fused to the C-terminal of mKO-FM14-C
Method: The amplification product was separated by agarose gel electrophoresis, excised out and purified and then cleaved with restriction enzymes NotI and XhoI, purified and used for the construction. mKO-FM14-N-p21-pCDNA3 and mKO-FM14-C-PCNA-pCDNA3 thus prepared were transfected to HeLa cells to obtain the history data of binding of p21 and PCNA. HeLa cells were grown in 3.5 cm dishes to 30% confluence, and after 16 hours, 500 ng each of the plasmid, mKO-FM14-N-p21-pCDNA3 and mKO-FM14-C-PCNA-pCDNA3, was transfected using the gene transfection reagent polyfect (QIAGEN) to co-express mKO-FM14-N-p21 and mKO-FM14-C-PCNA. Gene transfection was carried out according to the protocol of polyfect.
After 8 and 22 hours of the gene transfection, orange and green fluorescence images were obtained. […] Orange fluorescence image was obtained using the excitation filter 25BP520-540HQ, the fluorescence filter 25BA555-600HQ, and the dichroic mirror DM545HQ, and green fluorescence image was obtained using the excitation filter BP460-480, the fluorescence filter BA495-540, and the dichroic mirror DM485. […] Fluorescence image was obtained using a cooling CCD camera ORCA-ER (Hamamatsu Photonics Inc.).

mKO-FM14-C-PCNA [2] = target: T1, mKO-FM14-C-PCNA; assay: split fluorescent protein complementation in co-transfected HeLa cells, green fluorescence images 24 hours after transfection
Method: Since the 65th amino acid was included in mKO-FM14-N fragment, mKG-N-p21-pCDNA3 was produced by substituting the 65th cystein (C) of mKO-FM14-N-p21-pCDNA3 with alanine (A). HeLa cells were transfected with mKG-N-p21-pCDNA3 and mKO-FM14-C-PCNA-pCDNA3 to measure the binding between p21 and PCNA. HeLa cells were passaged in 3.5 cm dishes to 30% confluence, and after 16 hours, 500 ng each of the plasmid, mKG-N-p21-pCDNA3 and mKO-FM14-C-PCNA-pCDNA3, was transfected using the gene transfection reagent polyfect (QIAGEN) to co-express mKG-N-p21 and mKO-FM14-C-PCNA. Gene transfection was carried out according to the protocol of polyfect. After 24 hours of the gene transfection, green fluorescence images were obtained. The fluorescence image was obtained using the excitation filter BP460-480, the fluorescence filter BA495-540, and the dichroic mirror DM485. Excitation light was cut by 90% (10% transmission), and the exposure time was 1 second. An inverted microscope IX-71 (Olympus) with 40×Uapo/340 N.A. 1.35 lens (Olympus) was used. For image retrieval and analysis, MetaMolph (Nippon Roper Inc.) was used by binning 2 to obtain an image. Fluorescence image was obtained using a cooling CCD camera ORCA-ER (Hamamatsu Photonics Inc.). […]

Row | Binder | binding result (mKO-FM14-C-PCNA [1]) | binding result (mKO-FM14-C-PCNA [2])
1 | B1 | binds | 
2 | B2 |  | binds

Reference: patent US20070031912A1 (RIKEN, published 2007)
